From the supplement of paper PMC3334620
The full ranking holds about 33,000 sequences; the median of “E-score (-0.5 to 0.5)” is about -0.017, and the highest 2% start at about 0.3. The list shows a part of the results.

Molecular target: T1, Sut1 (UniProt P53032)
T1 sequence: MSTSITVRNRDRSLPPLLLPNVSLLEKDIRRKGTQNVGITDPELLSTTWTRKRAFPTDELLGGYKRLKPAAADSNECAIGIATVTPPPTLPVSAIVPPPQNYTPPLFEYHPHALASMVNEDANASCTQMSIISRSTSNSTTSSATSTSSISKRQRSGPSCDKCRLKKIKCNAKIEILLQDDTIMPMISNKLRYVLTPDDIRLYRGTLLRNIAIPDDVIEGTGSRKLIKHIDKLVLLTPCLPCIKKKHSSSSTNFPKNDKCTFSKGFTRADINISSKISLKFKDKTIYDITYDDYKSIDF
Assay: PBM E-score (8-mer binding enrichment) (E-score (-0.5 to 0.5)); higher = stronger / more preferred TF binding; most listed sequences are background and not binding sites
Settings: protein concentration: 200 nM; construct: GST-full length
How it was run: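 Universal all-10-mer Agilent arrays, fresh or stripped once, were converted to double-stranded form by primer extension. GST-tagged yeast transcription factors from PURExpress in vitro transcription/translation, full-length or DNA-binding domain only, were applied at about 100-200 nM and detected with fluorescent anti-GST. After masliner normalisation, the Universal PBM Analysis Suite scored each ungapped eight-base word together with its reverse complement by E-score.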

Sequence	PBM E-score
ATCAGTAG	-0.108
ATCCGACC	0.00218
AGGTAAAG	0.174
ACAGTTGA	0.0424
CATGGACC	-0.195
ACCCCATC	-0.168
AATTACTG	0.0499
ACTGCGCA	0.0539
CGCTAACA	0.017
ACATATGC	-0.245
CGAGTATA	0.0489
ATATTTTA	0.27
TCTTGCAA	0.155
CCCAGGGA	-0.392
TGGAGTAA	0.0966
CGAAATCC	0.131
ATCCTGAC	-0.0644
AACAGCCT	-0.166
AGACCGAC	0.0776
GCCACCGA	-0.19
ACGTTATC	-0.0701
AGCACTGA	0.155
CGAAATTA	0.255
CCGCTTAC	-0.117
GAACATGA	-0.0307

Sequence	PBM E-score
ACCTGTAG	-0.22
CATCCCGG	0.0601
ATAAGAGG	0.109
ACAAGAAG	0.123
ATGTGCCG	-0.256
GTGGCAGA	-0.253
CACGCGCG	-0.0182
CTTATGCC	-0.0906
CCGGCACC	0.126
GCAAGGGC	-0.254
ATCGATTG	0.06
AACGCCAG	-0.0217
CCCTCGCC	-0.406
CATGCCTA	-0.213
TACAAACA	0.234
AACCCTGA	-0.0483
TTGCCAAA	0.0153
CGCCAAAG	-0.237
ATAGATTG	0.0985
GAGCCACA	-0.029
ACGACTGC	-0.191
AAACTCAC	-0.00143
CTGTGCTA	-0.0815
CTATCGCA	-0.0989
GCCTTGTA	-0.0253

Sequence	PBM E-score
CGTAGGTA	-0.0916
CCCAATCA	-0.00324
ATGTGACA	0.127
CAAGTGCG	-0.00833
GGGTCGAA	-0.128
AGATCTCC	0.122
AGGCCGGG	-0.108
ATACCGGA	0.326
CGCAGAAG	0.00083
TAACGTTA	0.166
ATTGATCC	0.0981
AGAACTAG	-0.0366
TCGCGCGA	-0.0129
AGATCCAA	-0.0144
CGAATACC	0.0255
ATCCTTTC	-0.00172
ACTGTCGA	-0.101
GACGTCGA	-0.188
ACAGACAG	0.0125
ACCAGTGG	-0.105
GGCCTAAA	-0.0532
ACAGTGGT	-0.141
CCGATCTA	0.137
GGCGGGGA	0.0668
CGAAACGC	-0.0285

Sequence	PBM E-score
GAATGCCA	-0.0268
AGTAGCGG	0.0806
ACACGCGT	0.029
GCGTCAAA	0.0357
CGGTTACC	-0.197
AGTTGCTC	-0.0226
ATATTAAG	0.141
GCAACGCC	-0.114
AAATGACC	0.104
CACTGGTC	-0.214
AACGGCCA	0.161
AAAACTTT	0.0595
CACAGCCA	-0.222
AGCTGGGA	-0.262
GAGTACCC	-0.196
CGCCCAGC	-0.0173
AGGCCGTC	-0.289
AGCCATCC	-0.163
CTGAACAC	-0.0309
GCGTAGGA	-0.102
AGGTATAG	-0.0949
CTACCTGC	-0.0426
CACGACCA	-0.0486
ATCCGAGA	0.198
CGACACGC	-0.0851

Sequence	PBM E-score
ATGATGGA	0.0142
ATCGATCG	-0.0937
AATAGCTC	-0.207
CTTATGGA	-0.169
ATCAGCGA	0.0529
GCCCCTCA	-0.248
GGTCATAC	-0.0756
AACGTGAA	0.0111
CCAATAAC	0.135
CTTACTGC	-0.0137
GTTATCAA	0.109
CATACCCC	0.0362
ACCGCGAA	0.0419
GCGACGTA	-0.143
ACCGGCTG	-0.0111
ACGGAACA	0.229
CAAGCTTC	0.0847
ATGGGCTC	-0.294
ACTCCGAT	0.491
CGATCTAG	-0.0782
AGACCTTG	-0.0468
AGTTCTGC	-0.148
AAACCTCC	-0.0204
ACTAATAA	0.223
CGCGTACG	0.0703

Sequence	PBM E-score
AGACTTCG	-0.0617
ACCCCCAA	-0.16
ACGCCTAA	-0.0531
CGTGAGTC	-0.248
CGCCCATC	-0.158
GCTACGGA	0.151
CAACACGC	-0.0885
AACAAAGA	0.129
AAACAGCA	0.0965
CTGTGCGA	-0.187
CTGGAGTA	0.0562
AAAGCGCG	-0.044
AAGTCTGC	-0.193
GCAATATA	0.025
ATTTCCGA	0.231
TGTTTCAA	0.202
CTAGACCC	-0.143
AAGCACAC	-0.0807
CTATCGGA	0.337
ATCCCGGC	-0.0494
CAGGCTGG	-0.304
CTAATCCC	-0.0144
CGTGTAAG	0.0869
TATGACCA	-0.0156
ATACTATC	0.202

Sequence	PBM E-score
GCGTGCCA	-0.115
GATTCCAA	0.0131
CCCAGGAC	-0.228
GAAGTGTA	-0.0846
CCTCCGTC	-0.0539
AATACTAC	0.161
ACGCTATC	-0.0585
AGTAGACG	0.0314
AAGAGCTT	0.0765
GTAACGGA	0.329
GTAAGGAC	-0.256
ACAGGACG	-0.00258
GTTTAAAC	0.31
AACTGGAG	-0.112
CCGGTACC	-0.0143
AACGTATC	-0.0743
ATAGAAAC	0.195
AGGTCTGC	-0.139
CCAGCAGG	-0.299
GTGCGGTA	-0.137
AGTAGAGC	-0.177
AGCTCAAT	0.111
CTTACTCA	-0.0535
AACTTCGC	-0.047
CTGCGCCA	-0.15

Sequence	PBM E-score
ATAATGAC	-0.0339
TGTCCGAA	0.428
AGGTTGAG	-0.157
AACCTCTA	-0.0278
CTGTTTTC	0.101
ACAGGAGC	-0.103
AGTCTGTA	-0.146
CAGTCGAC	-0.0872
ATAGACCC	-0.0627
GATGAAGA	0.0267
AGAGTGGC	-0.259
GGCTCCAA	0.00981
ATCGCATC	-0.123
GAGCCCGC	-0.146
CCAAATCA	-0.0266
CACGGAGC	0.354
GGGAACTA	-0.0295
GGACGTAA	-0.136
ACCCATGA	-0.124
ACCCCCGA	-0.118
GCATACCA	-0.197
TGGATCAA	-0.0581
ACGGATGC	0.021
CTTCTGTC	-0.0909
CTCTGACC	-0.259

Sequence	PBM E-score
CGCATTTC	0.0887
ACATGTAC	-0.109
CGGGAAAG	0.0751
ACGGTCAT	0.0457
TAACCACA	0.0707
GTAGGTAA	0.053
ATAACGCA	0.00177
CCGGAAAG	0.276
TGTAAACA	0.217
CATCGCTA	-0.0159
GCTCGTCA	-0.241
GGCTAACC	-0.134
GAAGAAAC	0.177
CTAATGTA	0.118
ACAGCTAC	-0.0838
AAACTAAA	0.222
AAAGGAGA	-0.00755
AAGGATAA	0.0154
GCTTGACC	-0.131
GGAAGCGA	0.0434
ACCGGCTA	-0.126
ATGTCCGG	0.451
AGAAACGC	0.0494
AAAGACTC	0.026
CCATGCCG	-0.142

Sequence	PBM E-score
GTGTTAAA	0.0268
ATATTAGA	0.177
GGCAGGTA	-0.154
CCAAGGTA	-0.171
AATGGAGG	-0.0978
AGATATAC	0.0915
ATAGAGCC	-0.12
ACAGGAGG	-0.159
GCGACGGA	0.183
ATATCGTA	0.0812
GTTAGGTA	0.133
AAGGACAG	0.0195
CTGCGAAC	-0.0402
ATAATTAC	0.283
ACGATAAT	0.218
ACATAATG	0.178
GTCTTCCA	-0.0496
GCACGTAA	-0.216
CGCTATAG	-0.272
ATCCGCAG	0.0529
ACAACTAC	0.22
GTAGTAAA	0.2
CTATCAAG	-0.00093
GGGGCCTA	-0.357
GTCTTCAC	0.00144

Sequence	PBM E-score
AAACCCCA	-0.123
ACGCGCGC	0.05
CTATCAGA	-0.112
CTGTGGTC	-0.138
AGCATTAA	-0.0218
TGTATTAA	0.244
ACGACCAG	-0.103
AGGCTGGG	-0.307
ACCTCTAA	-0.0713
CGATATTC	-0.0958
AATACATG	0.256
CTGTGATA	-0.0237
ATCCGAAT	0.32
CGAAACTC	0.12
ATAGACTG	-0.161
AGCAGGAA	-0.143
AAGGATCT	-0.0932
CCGGAACG	0.202
ACCGATTC	-0.153
GCTCGTAC	-0.111
GGCGGTTA	-0.0713
GCAAGAGA	-0.196
AGTCAGGC	-0.0218
GAATCATC	0.0169
CATCTGAA	0.0794

Sequence	PBM E-score
CGTCGTCA	-0.139
TCGAACCA	-0.154
AAAGCCGA	-0.0256
CCTACCTA	0.00587
CCGTGGGA	-0.132
CAGAGCCC	-0.0247
ACCCAGCC	-0.273
CATGATCC	-0.0268
GCGCCGAA	0.111
TAGTTAAA	0.278
GGCGGTCA	-0.181
GAGGGTCC	-0.0561
AACTCATG	0.0383
CGTATGTA	0.054
TACTCACA	0.03
ACGGCACG	-0.0976
AATTGCAG	0.0512
GTCGAGAC	-0.12
TTGCCCAA	-0.061
CGAGCGAA	-0.0328
CGTCGTAG	-0.104
CTGAACTA	0.00909
AGTCCGTG	0.431
CCTTGACC	-0.0469
GGCGAGAA	0.023

Sequence	PBM E-score
GCCGTGTA	-0.196
TAGTCAGA	0.00987
CGCCCATA	-0.113
CACATAAA	0.105
ATTGATAC	0.199
CAACACTC	0.154
GGTGTGAC	-0.332
CATTCTCG	-0.032
CCATGGGC	-0.0948
GAGTCAAA	-0.0658
AGCTAAGA	-0.0341
ACTGTTGC	0.0734
GCCGACCC	-0.287
ACGTCATC	-0.187
GGAGAGGA	-0.189
AGCAAATC	0.142
TAAATGTA	0.23
GAGGGTTA	-0.0895
CCAATCCG	0.00675
AGGGTCAC	-0.166
CCCCGCAC	-0.16
AATGTAAC	0.00444
AAATCTCA	0.00981
CAGAATAC	0.0451
TGACCGCA	-0.187

Sequence	PBM E-score
ATCTAGAC	-0.0479
CTCGAAGA	-0.101
CATCTCAA	0.117
GACTTCCA	-0.0749
GTCTGAGA	-0.118
CGAGTGAA	-0.0681
CGTCTGCA	-0.133
GAAATGTA	0.13
CGCTCAGC	-0.105
AGATATGA	0.13
AAACGCCT	-0.05
CAGATACG	0.109
GATCGTGA	-0.00383
CCACGTCA	-0.0771
TGAATTCA	0.0862
AGATGTTA	-0.037
GGACATCA	0.3
AAAAAGTT	0.0541
CACCCGCA	0.0155
